# Hit rate of the full screen: of about 110,000 compounds, about 610 (0.55%) were called active. This list was built around the results that the source calls inconclusive (neither active nor inactive); the mix of calls is not that of the screen. Calls come from the whole dose curve; as a rule, active = well fitted inhibition curve with a large enough effect; inconclusive = small, poorly fitted or top-dose-only effect; inactive = no such curve, though single readings can be large or run the other way. A potency beside an inconclusive call is a rough fit, not a confirmed value.
# Target: Polyunsaturated fatty acid lipoxygenase ALOX15B (Homo sapiens) (UniProt O15296)
# Chain of UniProt O15296 (O15296 whole entry, looked up): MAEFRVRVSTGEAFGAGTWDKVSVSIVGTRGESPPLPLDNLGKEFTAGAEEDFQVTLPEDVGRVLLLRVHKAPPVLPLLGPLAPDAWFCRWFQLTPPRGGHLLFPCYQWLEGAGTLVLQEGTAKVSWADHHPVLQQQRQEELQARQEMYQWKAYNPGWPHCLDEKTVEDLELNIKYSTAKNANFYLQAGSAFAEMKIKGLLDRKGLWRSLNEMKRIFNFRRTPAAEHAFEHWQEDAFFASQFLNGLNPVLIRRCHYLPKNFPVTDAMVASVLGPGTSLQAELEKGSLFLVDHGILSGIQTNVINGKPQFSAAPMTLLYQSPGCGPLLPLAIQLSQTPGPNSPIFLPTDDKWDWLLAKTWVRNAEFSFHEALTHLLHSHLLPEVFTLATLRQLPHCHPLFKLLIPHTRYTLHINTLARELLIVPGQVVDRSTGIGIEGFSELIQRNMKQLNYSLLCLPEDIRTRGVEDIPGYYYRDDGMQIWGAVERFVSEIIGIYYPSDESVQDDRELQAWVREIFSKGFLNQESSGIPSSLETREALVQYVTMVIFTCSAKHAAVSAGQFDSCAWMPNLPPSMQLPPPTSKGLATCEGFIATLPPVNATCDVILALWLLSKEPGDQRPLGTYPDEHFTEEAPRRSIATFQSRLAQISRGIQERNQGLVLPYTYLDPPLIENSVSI
# Experiment: qHTS Assay for Inhibitors of 15-hLO-2 (15-human lipoxygenase 2); note: nearly all actives have a fitted effect of over 60% in size
# Settings: purified 15hLO-2, xylenol orange hydroperoxide absorbance; activity change, negative = inhibition: at 57.1 µM (top of the series) unless noted
# How it was run: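 Enzyme 50 nM, AA 45 uM, 25 mM Hepes pH 7.5 + 0.01% Triton X-100; cpd preinc 15 min RT, rxn 90 min RT; stop/detect with 200 uM XO + 300 uM Fe(II) in 50 mM H2SO4, 30 min; A573/A405.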
# % is set by controls: 0 for no effect and ±100 for the full control effect; potency is the fitted concentration of half-maximal effect; tags give direction and shape of the fitted curve.
SMILES,Potency,"activity change, negative = inhibition"
Cc1n[nH]c(C)c1N1C(=O)c2cccc3c(N4CCCCCC4)ccc(c23)C1=O,inactive,
CC(C)c1ccc(N=c2c([N+](=O)[O-])nn(-c3ccc4c(c3)OCCO4)n2O)cc1,"inconclusive: 12.6 µM [inhibitor, partial curve]",
CC(C)NC(=O)N1CCC2(CC1)CCN(C(=O)c1csnn1)CC2,inactive,
O=C(CSc1ccc(Cl)cc1)c1ccco1,"inconclusive: 25.1 µM [inhibitor, partial curve]",
O=S(=O)(c1cccc2c(S(=O)(=O)N3CCCC3)cccc12)N1CCCC1,inactive,
O=C(NC(=S)Nc1ccccc1N1CCCC1)c1ccc(-c2cccc([N+](=O)[O-])c2)o1,active: 7.94 µM,
CCCCN1C(=O)c2ccc(C(=O)Nc3cccnc3)cc2C1=O,"inconclusive: 6.31 µM [inhibitor, single point]",
CCCCNC(=O)c1sc(=S)n(-c2ccccc2OC)c1N,"inconclusive: 15.8 µM [inhibitor, partial curve]",
Cc1cc(C)n2nc3nc(N4CCCCC4)nc(-c4ccco4)c3c2n1,"inconclusive: 15.8 µM [inhibitor, partial curve]",
COc1ccc(OC)c(Nc2nc(-c3sc(N)nc3C)cs2)c1,inactive,
COc1ccccc1NC(=O)CSC(N)=O,"inconclusive: 3.98 µM [inhibitor, full curve]",
Cc1ccc(-c2nnn(CC(=O)N(Cc3cccs3)C(C(=O)NC3CCCC3)c3ccco3)n2)o1 (configuration not stated),"inconclusive: 10 µM [inhibitor, partial curve]",
S=C(NCCSCc1ccc(Cl)cc1Cl)Nc1ccccc1,"inconclusive: 31.6 µM [inhibitor, single point]",
COC(=O)C1=C(C)OC(N)=C(C#N)C1c1ccccc1 (configuration not stated),inactive,
CCc1oc2ccccc2c1C(=O)CCN1CCCCC1,"inconclusive: 1.58 µM [inhibitor, full curve, poor fit]",
Cc1csc(SCC(=O)Nc2ccc(Cl)cn2)n1,inactive,
O=c1cc(N2CCOCC2)oc2c(-c3ccccc3)cccc12,"inconclusive: 25.1 µM [inhibitor, partial curve]",
CC(=O)[C@H]1[C@@H]2C(=O)N(c3cccc(Cl)c3)C(=O)[C@@H]2[C@H]2c3ccccc3C=CN21,"inconclusive: 10 µM [inhibitor, partial curve]",
CCc1cc2c(=O)n(Cc3ccco3)c(SCC(=O)N3CCCc4ccccc43)nc2s1,"inconclusive: 15.8 µM [inhibitor, partial curve]",
CCCCN=C(C)c1c(O)c2ccccc2oc1=O,"inconclusive: 25.1 µM [inhibitor, partial curve]",
FC(F)Oc1ccc(NC(=S)NCc2ccccc2)cc1Cl,"inconclusive: 20 µM [inhibitor, single point]",
COc1ccc(NC(=S)NCCc2ccccc2OC)c(OC)c1,"inconclusive: 25.1 µM [inhibitor, single point]",
Cc1ccc(-c2cc(C(=O)Nc3cccnc3)c3ccccc3n2)o1,"inconclusive: 7.94 µM [inhibitor, partial curve]",
COc1ccc(C2C(C#N)=C(N)SC(N)=C2C#N)cc1OC,"inconclusive: 39.8 µM [inhibitor, single point]",

SMILES,Potency,"activity change, negative = inhibition"
Cc1ccccc1C(=O)O/N=C(\N)c1cccc([N+](=O)[O-])c1,inactive,
O=[N+]([O-])c1ccccc1N/N=C/c1cc2ccccc2nc1Cl,"inconclusive: 39.8 µM [inhibitor, single point]",
CSc1ccc(C2C(C#N)=C(N)Oc3c2ccc(=O)c2c(C)oc(C)c32)cc1 (configuration not stated),"inconclusive: 25.1 µM [inhibitor, partial curve]",
CCSC1(SCC)N=C(N)C2(C#N)C(c3ccccc3)NC(C)=C(C)C12C#N (configuration not stated),"inconclusive: 7.94 µM [inhibitor, single point]",
CCCCCCC(=O)N(O)C1CC(=O)N(c2ccc(C)cc2)C1=O (configuration not stated),"inconclusive: 0.631 µM [inhibitor, full curve]",
O=C(Nc1ccc2oc(-c3cccnc3)nc2c1)c1cc2ccccc2o1,inactive,
Cc1ccc(S(=O)(=O)c2c(N)n(Cc3ccco3)c3nc4ccccc4nc23)cc1C,"inconclusive: 25.1 µM [inhibitor, single point]",
CNc1sc(C(=O)c2cccs2)c(N)c1-c1nc2ccccc2s1,inactive,
Cc1sccc1C1C(C#N)=C(N)SC(N)=C1C#N,"inconclusive: 25.1 µM [inhibitor, single point]",
COc1ccc(C2CC(=O)N3CN(Cc4ccco4)CSC3=C2C#N)cc1 (configuration not stated),inactive,
CCc1ccc(C2C(C#N)=C(N)SC(N)=C2C#N)s1,"inconclusive: 12.6 µM [inhibitor, partial curve]",
CC(C)C1=CC2=CCC3[C@@](C)(CCC[C@@]3(C)C(=O)O)C2CC1 (some centres not stated),inactive,
CCc1ccc(OCC(=O)N(C)C2CCS(=O)(=O)C2)cc1 (configuration not stated),inactive,
N#CCCS(=O)(=O)c1nnnn1-c1ccccc1,"inconclusive: 15.8 µM [inhibitor, partial curve, poor fit]",
Cc1cc(Nc2ccc(O)cc2)ccc1N,"inconclusive: 0.199 µM [inhibitor, full curve, poor fit]",
CCc1nnc(NC(=O)CSc2nc3cc4c(cc3cc2CC)OCCO4)s1,,inactive: -3.32% [at 11.4 µM]
Cc1ccc(NC(=S)Nc2ccc(Br)cc2)cc1,"inconclusive: 0.158 µM [inhibitor, full curve, poor fit]",
CC(C)c1cc(-c2n[nH]c(=S)n2Cc2ccccc2)cs1,"inconclusive: 15.8 µM [inhibitor, partial curve]",
NC(=O)CN1CCN(c2ccccc2F)CC1,inactive,
CS(=O)(=O)Nc1ccccc1C(=O)O,inactive,
O=c1c(-c2cc(F)cc(F)c2)nc2cnc(Nc3ccccc3)nc2n1C[C@H]1CCCO1,inactive,
CC1=NOC(=O)/C1=C\c1ccc(-c2ccc(Cl)cc2Cl)o1,active: 7.94 µM,
Cc1ccccc1C(=O)NC(=S)NCC1CCCO1 (configuration not stated),"inconclusive: 7.94 µM [inhibitor, full curve]",

# — PubChem BioAssay AID881 (National Center for Advancing Translational Sciences (NCATS), 2007)
